# Among all 310,000 compounds or so, about 2,200 (0.71%) showed an effect of 50% or more. The effect is printed as a negative number. This is one part of the list.
# Target: human ether-à-go-go-related gene (hERG) potassium channel (human, UniProt Q12809)
# Assay: primary screen, population patch clamp on CHO cells stably expressing hERG
# Sequence of human ether-à-go-go-related gene (hERG) potassium channel (Q12809 whole entry, looked up): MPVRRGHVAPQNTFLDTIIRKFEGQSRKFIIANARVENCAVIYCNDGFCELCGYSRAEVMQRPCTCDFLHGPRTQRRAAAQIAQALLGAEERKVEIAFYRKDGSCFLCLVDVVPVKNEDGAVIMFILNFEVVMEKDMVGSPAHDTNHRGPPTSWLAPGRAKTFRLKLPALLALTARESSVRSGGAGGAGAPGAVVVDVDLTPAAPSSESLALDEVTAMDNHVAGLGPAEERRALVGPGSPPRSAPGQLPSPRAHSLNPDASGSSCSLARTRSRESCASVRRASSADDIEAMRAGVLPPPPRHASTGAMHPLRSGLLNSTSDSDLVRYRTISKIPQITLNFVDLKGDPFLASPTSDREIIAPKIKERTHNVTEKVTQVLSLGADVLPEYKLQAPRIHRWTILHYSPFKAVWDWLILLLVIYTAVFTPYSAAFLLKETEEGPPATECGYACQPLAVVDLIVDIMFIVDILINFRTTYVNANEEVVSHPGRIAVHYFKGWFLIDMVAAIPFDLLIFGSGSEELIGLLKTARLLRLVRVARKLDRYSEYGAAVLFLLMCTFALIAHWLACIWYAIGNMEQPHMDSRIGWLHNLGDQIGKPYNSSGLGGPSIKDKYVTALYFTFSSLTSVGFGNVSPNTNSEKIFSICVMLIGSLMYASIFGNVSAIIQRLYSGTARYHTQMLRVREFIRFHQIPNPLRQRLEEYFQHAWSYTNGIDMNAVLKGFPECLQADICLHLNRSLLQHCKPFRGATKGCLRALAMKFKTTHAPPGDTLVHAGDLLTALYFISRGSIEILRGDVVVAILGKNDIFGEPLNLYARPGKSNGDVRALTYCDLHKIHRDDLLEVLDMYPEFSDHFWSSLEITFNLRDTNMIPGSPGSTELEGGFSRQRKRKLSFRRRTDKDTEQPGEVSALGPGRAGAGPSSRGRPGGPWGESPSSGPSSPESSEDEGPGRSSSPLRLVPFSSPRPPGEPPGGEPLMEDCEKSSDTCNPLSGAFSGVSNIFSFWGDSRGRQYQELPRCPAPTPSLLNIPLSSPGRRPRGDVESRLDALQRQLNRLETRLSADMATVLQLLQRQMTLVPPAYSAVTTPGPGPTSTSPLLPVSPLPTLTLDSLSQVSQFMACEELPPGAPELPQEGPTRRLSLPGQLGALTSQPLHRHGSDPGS
row,SMILES,"hERG current change (%, negative = inhibition) at 1uM [%]"
1,CCOC(=O)C(C(=O)c1ccccc1)C1CC(C)NC(=S)N1 (stereo not shown),-1.21
2,Cc1ccc(S(=O)(=O)NCc2ccccc2)cc1,14.8
3,COC(=O)c1ccc(C2C(C(=O)c3ccc(C)o3)=C(O)C(=O)N2c2cc(C)on2)cc1 (stereo not shown),24.1
4,COc1ccc(CNS(=O)(=O)c2ccc(-n3cccn3)cc2)cc1,6.54
5,Cc1cc(C)c(NC(=O)CNC(=O)COC(=O)C2=COCCO2)c(C)c1,7.04
6,O=C(O)C1=C[C@@H](c2coc3ccccc3c2=O)C[C@@H](OCc2ccc(CO)cc2)O1,2.17
7,Cc1nc(C2CCCCC2)c(-c2ccccc2)c(N2CCOC2=O)c1C,13.5
8,O=C(Nc1ccc2c(c1)OCO2)C1CCN(C(=O)c2ccc(Cl)cc2)CC1,-59.6
9,Cc1ccc(C)c(NC2=NCCCS2)c1,2.66
10,O=C(CCN1C(=O)/C(=C/c2ccccc2F)SC1=S)Nc1cccnc1,9.81
11,COc1cccc(CNC(=O)C(Cc2ccccc2)n2cccc2)c1 (stereo not shown),5.82
12,COc1cc2c(cc1OC)C(c1ccc(-c3cc(Cl)ccc3Cl)o1)=NCC2,-0.62
13,O=C(NC1CCCCC1)C(c1ccccc1)N1CCc2ccccc21 (stereo not shown),3.05
14,O=C(NNC(=O)c1ccccc1-c1ccccc1C(=O)O)c1cccc([N+](=O)[O-])c1,-3.69
15,Cc1ccc(N2C(=O)C3C4C=CC(CNC(=S)N5CCN(c6ccccn6)CC5)(O4)C3C2=O)cc1 (stereo not shown),8.44
16,CC(C)c1ccccc1OCC(=O)N(C)CC(=O)Nc1ccc(F)cc1,-4.57
17,CCOc1ncccc1C(=O)OCC(=O)N(CC(C)C)C1CCS(=O)(=O)C1 (stereo not shown),6.71
18,COc1ccc(C(=O)COC(=O)C(CC(C)C)N2C(=O)c3ccccc3C2=O)cc1 (stereo not shown),-8.7
19,COCC(=O)Nc1cc(OC)cc(OC)c1,11.4
20,O=[N+]([O-])c1ccc(C(O)CN2CCN(Cc3ccccc3)CC2)cc1 (stereo not shown),-73
21,Cc1cnc(C(=O)Nc2nnc(C)s2)cn1,7.37
22,COc1cc(OC)cc(C(=O)NC(C(=O)Nc2ccc3nc(C)sc3c2)C(C)C)c1 (stereo not shown),11.4

row,SMILES,"hERG current change (%, negative = inhibition) at 1uM [%]"
1,CCOC(=O)C(C)On1c(-c2ccccc2)nc2ccc([N+](=O)[O-])cc21 (stereo not shown),-7.92
2,COc1cc(NC(=O)c2ccco2)ccc1NC(=O)c1ccccc1Cl,8.83
3,CC(C)OCCCn1c(=O)c2ccccc2n2c(CCC(=O)O)nnc12,16.4
4,Cc1nn(-c2ccccc2)c(Cl)c1C(=O)OCC(=O)N(C)c1c(N)n(Cc2ccccc2)c(=O)[nH]c1=O,0.852
5,COc1ccc(CNC(=O)COC(=O)CCn2c(C)csc2=O)cc1OC,3.29
6,COc1ccc(C(=O)Cn2cnc3ccccc3c2=O)cc1,8.78
7,C#CCn1c(S(=O)(=O)Cc2ccc(C)cc2)nc(-c2ccccc2)c1-c1ccccc1,18.3
8,CC(=O)Nc1ccc(S(=O)(=O)Nc2ccccn2)cc1,15.5
9,Cc1cccc(NC(=O)CSc2nnc(Cc3ccccc3)o2)c1,2.75
10,COc1ccc(CCNC(=O)Cn2nc(C(=O)O)c3ccccc3c2=O)cc1OC,18.7
11,CCOc1ccc(-n2c(SCC(=O)Nc3ccc(OC)cc3OC)nc3c(c2=O)SCC3)cc1,4.33
12,COc1ccc(N/C=C/C(=O)C(F)(F)F)cc1,-0.23
13,CC1(C)CC(n2[nH]c(=O)c3c2NC(=O)CSC3c2ccc(F)cc2)CCO1 (stereo not shown),1.61
14,COc1ccc(-c2nnc(S/C(=C/c3ccc(Cl)cc3)C(=O)O)o2)cc1,13.5
15,O=C(CN1CCN(S(=O)(=O)c2ccc(F)cc2)CC1)Nc1cccc(C(F)(F)F)c1,-10.1
16,Cc1ccc(C(=O)Nc2ccc3c(c2)ncn3C)cc1,10.1
17,CCCN1CCN(CCCNC(=O)Cn2nc(C)n3c(cc4cc(OC)ccc43)c2=O)CC1,11.4
18,CC(=O)Cc1nsc(NC(=O)c2ccc(-c3ccccc3Cl)o2)n1,4.39
19,CC(C)[C@H](NC(=O)N1CCC(Cc2ccccc2)CC1)C(=O)O,-2.51
20,CCN1CC(CN(C)Cc2nc(-c3ccc(Cl)cc3)no2)CC1=O (stereo not shown),-14.9
21,CCOC(=O)c1c(N)n(Cc2ccccc2)c2nc3ccccc3nc12,-12.1
22,O=C(c1cc(-c2ccc(Cl)cc2)n(-c2ccc(Cl)cc2)n1)N1CCOCC1,-56.8

row,SMILES,"hERG current change (%, negative = inhibition) at 1uM [%]"
1,C=CCOC(=O)C1=C(C)N=C2SCCC(=O)N2C1/C=C/c1ccccc1 (stereo not shown),14.3
2,CCCCC1CC(C)(C(=O)CSc2nc3ccccc3s2)OC1=O (stereo not shown),6.47
3,O=C1C2C(c3ccccc3)=NN(c3ccccc3)C2C(=O)N1c1ccccc1 (stereo not shown),11
4,O=C(COC(=O)/C=C/c1ccc(Cl)c(Cl)c1)NC1CCCC1,13.2
5,CCN(c1ccccc1)S(=O)(=O)c1cc(C(=O)OC(C)C(=O)Nc2ccc3c(c2)OCCO3)ccc1C (stereo not shown),7.97
6,CCOC(=O)C1=C(CS(=O)(=O)c2ccc(C)cc2)NC(=O)NC1c1ccc(O)c(OC)c1 (stereo not shown),16.1
7,COc1ccc(NC(=O)CN(C)C(=O)c2cn(-c3ccccc3)nc2-c2ccc(F)cc2)cc1,15.8
8,COc1ccc2c(c1)CCc1c(C(=O)N3CCCCCC3)noc1-2,-1.37
9,CNC(=O)c1sc(=S)n(-c2ccc(OC)cc2)c1N,18.1
10,Cc1ccc(CN2CCN(CC(=O)NC(C)CCc3ccccc3)C2=O)cc1 (stereo not shown),3.74
11,COc1ccc(-c2noc(CCC(=O)NCC3CCCO3)n2)cc1OC (stereo not shown),16.4
12,O=C(O)CN1C(=O)C(=O)N(Cc2ccccc2F)C1=O,2.93
13,Cc1cc(C)n2nc(C(=O)OCCOc3ccc(F)cc3)nc2n1,5.07
14,CC(NC(=O)COC(=O)Cn1cnc2ccccc2c1=O)C1CC2CCC1C2 (stereo not shown),7.5
15,Cc1cc2c(c(=O)n1CCN(C)C)C(c1ccccc1Br)C(C#N)=C(N)O2 (stereo not shown),5.17
16,O=C(NCCN1CCN(c2ccccc2)CC1)c1ccc(NC(=O)C2CCCO2)cc1 (stereo not shown),9.33
17,COc1cccc(CNc2ccc(S(=O)(=O)N3CCN(C)CC3)cn2)c1,5.21
18,COc1ccc(NC(=O)NNC(=O)COc2ccc3ccccc3c2)cc1,9.41
19,C=CCSc1nc(O)c(C2OC(=O)c3c2ccc(OC)c3OC)c(=O)n1-c1ccccc1 (stereo not shown),1.11
20,COC(=O)c1ccc(C(NC(=O)OCc2ccccc2)/C(C)=C/[C@@H](C)C(=O)NCc2ccc(-c3ccccc3)cc2)cc1 (stereo partly shown),2.7
21,Cc1csc(NC(=O)C(CC(C)C)NS(=O)(=O)c2ccc3c(c2)oc(=O)n3C)n1 (stereo not shown),11.1
22,Cc1cc(C)nc(SCc2cc(=O)c(OC(=O)c3cc([N+](=O)[O-])ccc3Cl)co2)n1,4.51

row,SMILES,"hERG current change (%, negative = inhibition) at 1uM [%]"
1,CC(=O)Nc1cccc(NC(=O)CSc2nnc(NC(=O)C3CC3)s2)c1,21.1
2,O=C(Nc1ccccc1C(=O)N1CCCCC1)c1ccc(Cl)cc1Cl,-79.6
3,CCO[C@H]1OC(C(=O)NC2CC2)=C[C@@H](C)[C@@H]1CCCO,16.4
4,O=C(O)CC1CCS(=O)(=O)C1 (stereo not shown),18.4
5,CCn1cc(S(=O)(=O)CC(=O)Nc2cc(C)on2)c2ccccc21,15.6
6,CCN(CC)C(=O)c1sc2nc(-c3cccs3)cc(-c3cccs3)c2c1N,-1.95
7,CCN1C(=O)[C@H]2[C@@H](c3ccc(C)cc3)N3C(=O)N(c4ccccc4)C(=O)[C@@]3(C)[C@H]2C1=O,3.9
8,Cc1cc(NC(=O)CSc2nnc(-c3c[nH]c4ccccc34)n2C)no1,13.7
9,c1ccc(CCN2CCC(N3CCN(c4ccccc4)CC3)CC2)cc1,-33.8
10,COc1ccc(CN2CCCC(C(=O)c3ccc(Cl)cc3)C2)cc1Cn1cccn1 (stereo not shown),-78.4
11,Cn1c(OCc2cccnc2)nc2c1c(=O)n(Cc1ccc(F)cc1)c(=O)n2C,-6.27
12,CC(=O)Nc1ccc(C(=O)N/N=C/c2cccnc2)cc1,15.2
13,COc1cccc(-c2nnc(NC(=O)C(C)C)o2)c1,11.8
14,CCN1/C(=C2\SC(=S)N(Cc3ccccc3)C2=O)Sc2ccccc21,9.7
15,Cc1ccc(C)c(OCCC(=O)OCC(=O)Nc2ccc(N3CCOCC3)cc2)c1,21.7
16,Cn1c(Cc2ccccc2)nnc1SCC(=O)NC1CCCC1,4.17
17,CCOc1ccc(CN2C(=O)c3ccccc3C2=O)cc1C(=O)O,9.13
18,COc1ccccc1CN1CCNC(=O)C1CC(=O)NCCCN1CCCC1=O (stereo not shown),-3.3
19,C#CCn1c(=NC(=O)CN2C(=O)CCC2=O)sc2cccc(C)c21,-0.337
